Hit rate of the full screen: of about 310,000 compounds, about 14,000 (4.5%) showed an effect of 50% or more. Effects have a minus sign here. The list shows a part of the results.
These compounds were tested against human ether-à-go-go-related gene (hERG) potassium channel (human, UniProt Q12809) (assay: primary screen, population patch clamp on CHO cells stably expressing hERG).
Sequence of human ether-à-go-go-related gene (hERG) potassium channel (Q12809 whole entry, looked up): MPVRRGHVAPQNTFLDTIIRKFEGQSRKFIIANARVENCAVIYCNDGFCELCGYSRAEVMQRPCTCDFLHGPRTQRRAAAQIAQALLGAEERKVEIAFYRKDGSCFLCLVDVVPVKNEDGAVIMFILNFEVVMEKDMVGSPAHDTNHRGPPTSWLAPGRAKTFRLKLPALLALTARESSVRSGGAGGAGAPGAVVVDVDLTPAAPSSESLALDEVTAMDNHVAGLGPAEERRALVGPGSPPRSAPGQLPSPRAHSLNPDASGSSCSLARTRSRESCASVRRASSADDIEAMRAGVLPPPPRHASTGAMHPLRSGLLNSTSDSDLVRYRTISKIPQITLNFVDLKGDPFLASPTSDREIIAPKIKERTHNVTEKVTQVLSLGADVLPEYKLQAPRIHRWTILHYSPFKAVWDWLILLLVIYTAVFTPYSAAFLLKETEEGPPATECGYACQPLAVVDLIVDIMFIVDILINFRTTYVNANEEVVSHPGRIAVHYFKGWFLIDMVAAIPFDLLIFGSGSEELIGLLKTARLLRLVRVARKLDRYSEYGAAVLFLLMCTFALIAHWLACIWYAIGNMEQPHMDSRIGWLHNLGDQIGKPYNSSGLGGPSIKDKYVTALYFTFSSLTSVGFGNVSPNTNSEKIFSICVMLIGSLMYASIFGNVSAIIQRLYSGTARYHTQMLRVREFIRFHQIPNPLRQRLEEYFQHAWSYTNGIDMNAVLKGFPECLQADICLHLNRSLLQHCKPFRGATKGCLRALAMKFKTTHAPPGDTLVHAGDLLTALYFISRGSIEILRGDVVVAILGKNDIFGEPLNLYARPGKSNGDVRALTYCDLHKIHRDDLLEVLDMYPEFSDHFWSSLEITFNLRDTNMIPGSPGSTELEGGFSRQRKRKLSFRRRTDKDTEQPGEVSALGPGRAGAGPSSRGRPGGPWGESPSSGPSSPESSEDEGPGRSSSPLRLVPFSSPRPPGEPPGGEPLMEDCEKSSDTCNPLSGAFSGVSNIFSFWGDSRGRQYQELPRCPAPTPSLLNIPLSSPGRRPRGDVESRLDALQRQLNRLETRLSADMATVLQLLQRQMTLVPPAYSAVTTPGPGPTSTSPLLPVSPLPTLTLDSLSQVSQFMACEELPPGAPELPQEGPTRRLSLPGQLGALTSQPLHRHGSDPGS
With Cc1cccc(N2CCN(Cc3cc(=O)n4ccsc4n3)CC2)c1C the “hERG current change (%, negative = inhibition) at 10uM” value was -37.1%. For O=C(Nc1ncccn1)c1cccc(Cl)c1, the “hERG current change (%, negative = inhibition) at 10uM” value was 2.21%. With CC1CCCN(C2(O)C(=O)Nc3ccc(Cl)cc32)C1 (centres unmarked) the “hERG current change (%, negative = inhibition) at 10uM” value was 2.56%. Nc1c(C(=O)NCc2ccco2)nnn1CC(=O)Nc1ccccc1 was tested, and the “hERG current change (%, negative = inhibition) at 10uM” value was 15.9%. In the case of C=CCOn1c(=O)c(=O)n(OCc2ccccc2)c2ccccc21, the “hERG current change (%, negative = inhibition) at 10uM” value is reported as -41.7%. With CCCn1c2ccccc2c2cnn(CC(=O)NC3CCCCC3C)c(=O)c21 (centres unmarked) the “hERG current change (%, negative = inhibition) at 10uM” value was 11.7%. For O=C(COC(=O)CCNS(=O)(=O)c1ccccc1)NC(=O)c1ccccc1, the “hERG current change (%, negative = inhibition) at 10uM” value was -2.52%. In the case of CCn1cc(C(=O)N2CCN(c3ccc(C(C)=O)cc3)CC2)c2cc(OC)c(OC)cc2c1=O, the “hERG current change (%, negative = inhibition) at 10uM” value is reported as -44.3%. In the case of COC(=O)C1=C(C)NC(=S)NC1c1ccc(OC(=O)c2ccco2)cc1 (centres unmarked), the “hERG current change (%, negative = inhibition) at 10uM” value is reported as 9.33%. With CCCCCN(C(=O)CCC(=O)OCC(=O)N1CCCCC1)c1c(N)n(CCCC)c(=O)[nH]c1=O the “hERG current change (%, negative = inhibition) at 10uM” value was -3.24%. In the case of Cc1ccc(S(=O)(=O)N2CCCCC2C(=O)N2CCN(C)CC2)cc1 (centres unmarked), the “hERG current change (%, negative = inhibition) at 10uM” value is reported as 18.1%. CC1CC(=O)N(CC(=O)Nc2cccc(Cl)c2)c2ccccc2S1(=O)=O (centres unmarked) was tested, and the “hERG current change (%, negative = inhibition) at 10uM” value was -17.2%. In the case of CC1CCN(C(=O)c2ccc(CS(=O)(=O)Cc3ccccc3)cc2)CC1, the “hERG current change (%, negative = inhibition) at 10uM” value is reported as -33.6%. With c1coc(-c2nn3c(-c4ccco4)nnc3s2)c1 the “hERG current change (%, negative = inhibition) at 10uM” value was -17.6%. COc1ccc(C(c2oc(CO)cc(=O)c2O)c2oc(CO)cc(=O)c2O)cc1 was tested, and the “hERG current change (%, negative = inhibition) at 10uM” value was 19.5%. In the case of CCN1CCN(S(=O)(=O)c2ccc(Cl)c(C(=O)NC(C)(C)C)c2)CC1, the “hERG current change (%, negative = inhibition) at 10uM” value is reported as -16.5%. In the case of COc1ccc(NS(=O)(=O)c2coc(C(N)=O)c2)cc1Cl, the “hERG current change (%, negative = inhibition) at 10uM” value is reported as 3.54%. With Cc1cc(NC(=O)CN2C(=O)NC3(CCCCC3)C2=O)no1 the “hERG current change (%, negative = inhibition) at 10uM” value was -3.14%. For CCCCOc1ccc(C(=O)Nc2ccc(CN3CCOCC3)cc2)cc1, the “hERG current change (%, negative = inhibition) at 10uM” value was 13.5%. In the case of COC(=O)Cc1c(C)c2c(OCc3nn[nH]n3)cc(C)cc2oc1=O, the “hERG current change (%, negative = inhibition) at 10uM” value is reported as 11.4%. With CCN(CC)CCNC(=O)c1ccc(NS(=O)(=O)c2ccc3c(c2)OCCO3)cc1 the “hERG current change (%, negative = inhibition) at 10uM” value was 40.1%. In the case of O=C(COc1ccc2ccccc2c1)NCCn1ccc2ccccc21, the “hERG current change (%, negative = inhibition) at 10uM” value is reported as 12.4%. O=c1[nH]c(=O)n(-c2cccc(Cl)c2)c(O)c1C=NCCCN1CCOCC1 was tested, and the “hERG current change (%, negative = inhibition) at 10uM” value was -1.44%. In the case of O=C(NCc1ccccn1)C1CC(c2ccccc2Cl)=NO1 (centres unmarked), the “hERG current change (%, negative = inhibition) at 10uM” value is reported as 14.1%. For Cc1ccc(SCC(=O)NCCCN2CCOCC2)cc1, the “hERG current change (%, negative = inhibition) at 10uM” value was 15%. For Cc1[nH]c(-c2ccc3c(c2)OCO3)nc1C(=O)O, the “hERG current change (%, negative = inhibition) at 10uM” value was 12.3%. CCCCOC(=O)Nc1ccc(S(=O)(=O)Nc2ncccn2)cc1 was tested, and the “hERG current change (%, negative = inhibition) at 10uM” value was 5.77%. For O=c1cc(Cn2ccnc2)c2cc3c(cc2o1)CCC3, the “hERG current change (%, negative = inhibition) at 10uM” value was -5.54%. In the case of Cc1sc2nc(CN(CCc3ccccc3)C(=O)c3ccco3)[nH]c(=O)c2c1C, the “hERG current change (%, negative = inhibition) at 10uM” value is reported as 8.85%. With CCc1cc(CNC(=O)c2ccc(OC)c(OC3CCN(C(C)C)CC3)c2)on1 the “hERG current change (%, negative = inhibition) at 10uM” value was -4.13%. With CCn1c(C)c(C)c2cc(C(=O)NCCc3ccco3)ccc21 the “hERG current change (%, negative = inhibition) at 10uM” value was 4.52%. With Cc1ccc(NC(=O)N(C2CCCCC2)C(C)c2cccnc2)cc1C (centres unmarked) the “hERG current change (%, negative = inhibition) at 10uM” value was 11.4%. With Cn1c(COc2ccc(Cl)cc2)nnc1SCC(=O)NC1CCCC1 the “hERG current change (%, negative = inhibition) at 10uM” value was -33.2%. For O=C(Nc1ccc2c(c1)OCCO2)C1CCCC1, the “hERG current change (%, negative = inhibition) at 10uM” value was 3.23%. For O=C(NCC(=O)N1CCN(C(=O)c2ccccc2)CC1)c1ccc(Cl)cc1Cl, the “hERG current change (%, negative = inhibition) at 10uM” value was -31.2%. CCOC(=O)C1CCN(C(=O)C2CCN(C(=O)c3ccc([N+](=O)[O-])cc3)CC2)CC1 was tested, and the “hERG current change (%, negative = inhibition) at 10uM” value was -69.3%. In the case of COC(=O)c1cccc(NC(=S)Nc2ccc(Cl)c(Cl)c2)c1, the “hERG current change (%, negative = inhibition) at 10uM” value is reported as 7.76%. With Cc1cccc(CN2CCN(Cc3cccc(-n4cccn4)c3)CC2CCO)n1 (centres unmarked) the “hERG current change (%, negative = inhibition) at 10uM” value was -45.7%. For COc1cc(NC(=O)c2cc(C)nc3ccccc23)cc(OC)c1OC, the “hERG current change (%, negative = inhibition) at 10uM” value was 27.5%. COc1cc(CN(C)CC2CCCN(CCc3ccc(F)cc3)C2)c(Cl)cc1O (centres unmarked) was tested, and the “hERG current change (%, negative = inhibition) at 10uM” value was -30%. In the case of O=S(=O)(Nc1nc2cc3c(cc2nc1Cl)OCCO3)c1ccccc1, the “hERG current change (%, negative = inhibition) at 10uM” value is reported as -15.5%. With N#Cc1c(-c2ccc([N+](=O)[O-])cc2)nc2n(c1=O)CCS2 the “hERG current change (%, negative = inhibition) at 10uM” value was -28.7%. COc1ccc(S(=O)(=O)N(C)C)cc1NC(=O)CN1C(=O)NC2(CCCC2)C1=O was tested, and the “hERG current change (%, negative = inhibition) at 10uM” value was 15.5%. For CCOc1cc(C=C2C(=O)c3ccccc3C2=O)ccc1OCC(=O)Nc1ccc(C)cc1, the “hERG current change (%, negative = inhibition) at 10uM” value was 34.5%. O=C(NC1CCN(Cc2ccccc2)CC1)c1c(F)cccc1F was tested, and the “hERG current change (%, negative = inhibition) at 10uM” value was -24.4%. For N#CCCN/N=C(/Cc1nc2ccccc2[nH]1)c1cccc(Cl)c1, the “hERG current change (%, negative = inhibition) at 10uM” value was 6.63%. CSc1ccccc1NC(=O)c1cc(C2CC2)on1 was tested, and the “hERG current change (%, negative = inhibition) at 10uM” value was -32%. For CCC1Sc2ccccc2N(CC(=O)NCCC(C)C)C1=O (centres unmarked), the “hERG current change (%, negative = inhibition) at 10uM” value was 1.77%. For CC1(C)CC(=O)C(N=Nc2cccc(S(=O)(=O)N3CCOCC3)c2)=C(O)C1, the “hERG current change (%, negative = inhibition) at 10uM” value was -3.93%. Cc1cc(NC(=O)c2cccs2)ncc1NC(=O)c1cccc(F)c1 was tested, and the “hERG current change (%, negative = inhibition) at 10uM” value was 1.64%. With CC1=C(C(=O)Nc2cc(C(=O)N(C)Cc3ccccc3)ccc2C)SCCO1 the “hERG current change (%, negative = inhibition) at 10uM” value was -1.7%. In the case of O=[N+]([O-])c1ccc(N2CCCCCC2)c2ncccc12, the “hERG current change (%, negative = inhibition) at 10uM” value is reported as 5.54%. In the case of O=C(NC1CCN(Cc2ccccc2)CC1)c1ccc2c(c1)[nH]c(=O)n2Cc1ccc(F)cc1, the “hERG current change (%, negative = inhibition) at 10uM” value is reported as -21.8%. In the case of CC(=O)c1ccc(S(=O)(=O)N2CCCC(N(C)CCc3ccccc3)C2)cc1 (centres unmarked), the “hERG current change (%, negative = inhibition) at 10uM” value is reported as -81.2%. In the case of COc1cc(CN2CCN(Cc3ccc(C)cc3)CC2)c([N+](=O)[O-])cc1OC.O=C(O)C(=O)O, the “hERG current change (%, negative = inhibition) at 10uM” value is reported as -77.2%. With O=C1CC(N2CCC(C(=O)N3CCCCC3)CC2)C(=O)N1 (centres unmarked) the “hERG current change (%, negative = inhibition) at 10uM” value was 5.55%.
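Further: peak tail current of the secondary pulse compared with the same well before compound.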
